SMILES strings stand for the structures. Screen size: about 50,000 compounds; about 800 (1.6%) showed an effect of 50% or more. Some of the results follow.

From PubChem BioAssay AID1240 (Sanford-Burnham Center for Chemical Genomics, 2008) come the findings set out here.

This assay addresses Bcl-2-like protein 10 (Homo sapiens) (UniProt Q9HD36). Briefly: TR3 peptide-Bcl-B binding displacers, biochemical primary FP assay, phenotype converters (AID 1240).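 Also: 0% = Bcl-B with tracer peptide and DMSO and 100% = tracer peptide lacking Bcl-B.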 As to conditions: GST-Bcl-B / FITC-TR3 peptide fluorescence polarization; stronger effect = higher value; compound at 3.75 mg/L.
Sequence of UniProt Q9HD36 (Q9HD36 whole entry, looked up): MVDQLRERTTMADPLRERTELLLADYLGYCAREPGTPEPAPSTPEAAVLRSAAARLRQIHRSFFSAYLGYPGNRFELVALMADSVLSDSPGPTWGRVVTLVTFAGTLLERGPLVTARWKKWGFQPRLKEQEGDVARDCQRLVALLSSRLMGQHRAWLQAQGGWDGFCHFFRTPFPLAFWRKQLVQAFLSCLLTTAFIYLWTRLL
On to `CC(C)COc1ccc(C(=O)Nc2ccccc2)cc1`, for which the displacement amounted to 7.9%.

Consider `CCOc1ccccc1NC(=O)CN(c1ccc(OC)cc1)S(=O)(=O)c1ccccc1`, for which the displacement is 5.4%.

Regarding `CCCc1c(C)nc2ccc(OC)cc2c1SCC(=O)O`, the displacement is -4.3%.

Turning to `CCCCOc1ccc(C(=O)NCCc2ccccc2)cc1`, the displacement was 9.6%.

Turning to `COc1ccc(C(=O)N/C(=C\c2ccc(-c3cccc([N+](=O)[O-])c3)o2)C(=O)NC(C)C)cc1`, the displacement turned out to be 11.2%.

For `CCN(CC)C(=O)C1CN(S(=O)(=O)c2ccccc2)CCN1S(=O)(=O)c1ccccc1` (stereo unspecified), the displacement turned out to be 1.4%.

Turning to `COC(=O)C1=C(C)N(c2ccc(Br)cc2)C(=O)/C1=C\c1ccc(O)cc1`, the displacement was -4.8%.

As to `CCOc1cccc(-c2cc(C(=O)N3CCN(C)CC3)c3ccccc3n2)c1`, the displacement was -5.5%.

Regarding `COC(=O)c1cc(C(=O)Nc2ccc(C(N)=O)cc2)cc([N+](=O)[O-])c1`, the displacement is 16.4%.

For `CCOCCOC(=O)c1cccc(NC(=O)OCC)c1`, the displacement amounted to 3.8%.

With `O=C1Nc2ccc(Br)cc2/C1=C/C(=O)c1ccc(Cl)cc1`, the displacement is -5.6%.

Consider `O=C(O)CN1C(c2ccccc2)=Nc2ccc(Br)cc2C1c1ccccc1` (stereo unspecified), for which the displacement came out at 6.6%.

As for `Cc1c(Cl)cccc1NC(=O)C(C)C`, the displacement was 1.4%.

With `Cc1cc(=O)oc2ccc(OCC(=O)O)cc12`, the displacement was 5.3%.

In the case of `O=C1c2cccc([N+](=O)[O-])c2C(=O)N1c1ccncc1`, the displacement is -2.3%.

Turning to `CN(C)c1ccnc2sc(C(=O)Nc3ccccc3)c(N)c12`, the displacement is -6.1%.

For `CCN1CN=C2SC(CO)(CO)C(=O)N2C1`, the displacement worked out at 11.4%.

On to `Cn1c2ccc(I)cc2c2cc(C(=O)C(F)(F)F)ccc21`, for which the displacement was -6%.

As to `COc1ccccc1Cc1noc(-c2ccc(OC)c(OC)c2)n1`, the displacement worked out at 9%.

For `Cc1cc(NCCN2CCCCCC2)n2c(nc3ccccc32)c1C#N`, the displacement is 27.3%.

Take `CCc1ccccc1NC(=O)/C(C#N)=C\c1ccc(I)o1`: the displacement was -7%.

Regarding `CN(C)c1ccc(NC(=O)c2cccc3ccccc23)cc1`, the displacement was found to be 23.3%.

Take `CCOC(=O)C1(C)C=C(Nc2ccc(S(=O)(=O)Nc3nccs3)cc2)C(=O)N1c1ccccc1` (stereo unspecified): the displacement was -4.7%.

With `O=c1c2c(-c3ccccc3)csc2ncn1/N=C/c1ccccn1`, the displacement was determined as 18.5%.

As for `CC(C)(C)OC(=O)NNC(=O)C12CC3CC(CC(C3)C1)C2`, the displacement came out at 2.1%.

As to `COc1ccc(NC(=O)CN(c2cccc(Br)c2)S(=O)(=O)c2ccccc2)cc1`, the displacement is 6.6%.

Consider `Cc1ccc(C(=O)Nc2ccccc2C(=O)O)cc1`, for which the displacement worked out at 13%.

Turning to `O=c1oc2ccccc2c(NCc2ccco2)c1[N+](=O)[O-]`, the displacement came out at 1.2%.

As for `C=CCN1C(=O)/C(=C\c2ccc(-c3ccc(Cl)c(Cl)c3)o2)SC1=S`, the displacement was found to be 50.1%.

In the case of `CC1(C(=O)Nc2ccccc2Cl)CC2c3ccccc3C1c1ccccc12` (stereo unspecified), the displacement amounted to 0%.

`CC(C)N1C(=O)/C(=C/c2cccc([N+](=O)[O-])c2)SC1=S`: the displacement was 0.8%.

In the case of `O=C1S/C(=C\c2ccc(-c3ccccc3[N+](=O)[O-])o2)C(=O)N1c1ccccc1`, the displacement came to 47.7%.

Consider `COc1ccccc1NC(=O)C1=C(C)NC(=O)NC1c1ccc(Cl)cc1Cl` (stereo unspecified), for which the displacement was -13.4%.

In the case of `O=c1[nH]c(SCc2cccc3ccccc23)nc2ccccc12`, the displacement is 4.4%.

In the case of `COc1ccc(CNS(=O)(=O)c2ccc(NC(C)=O)cc2)cc1`, the displacement is -2.9%.

Consider `Cc1cccc(-c2cc(C(=O)O)c3ccccc3n2)c1`, for which the displacement is -4.1%.

Regarding `O=C(Nc1ccc(NC(=O)c2ccccc2Br)cc1)c1ccccc1Br`, the displacement amounted to 13.4%.

Consider `COC(=O)c1c(NC(=O)c2cc3ccccc3oc2=O)sc(C)c1C`, for which the displacement is -1.7%.

With `Oc1c(Br)cc(/C=N/Nc2nc3ccccc3s2)c(O)c1Br`, the displacement was -6%.

For `COc1ccc(-c2nc3cc(NC(=O)c4ccc([N+](=O)[O-])cc4Cl)ccc3o2)cc1OC`, the displacement is -2.4%.

As for `COc1ccc(C2CC(=O)NC(SCc3ccccc3)=C2C#N)cc1OCc1ccccc1` (stereo unspecified), the displacement was found to be 7.8%.

On to `NS(=O)(=O)c1ccc(NC(=O)/C(=C\c2ccc(Br)cc2)NC(=O)c2ccccc2)cc1`, for which the displacement came out at 1.8%.

In the case of `N#CC(C(=O)Nc1cccc2ccccc12)=C1CCCC1`, the displacement was determined as 0.5%.

As for `CCc1ccc(N2C(=O)/C(=C/c3ccc(I)o3)C(=O)NC2=S)cc1`, the displacement was -30.7%.

`CC(/C=C/c1ccc2c(c1)OCO2)=N\NC(=O)COc1ccccc1[N+](=O)[O-]`: the displacement is 6.7%.

`CCc1ccc(N2C(=O)/C(=C/c3cc(Cl)c(OCC(=O)O)c(Cl)c3)C(=O)NC2=S)cc1`: the displacement is -11.9%.

Turning to `COCc1cc(CN2CCOCC2)c(O)c2ncccc12`, the displacement is -15.7%.

As to `COc1ccc(N(CC(N)=O)S(=O)(=O)c2ccccc2)cc1Cl`, the displacement is 12.3%.

For the compound `CC(/C=N/NC(=O)c1cc(C)[nH]n1)=C\c1ccccc1`, the displacement was -1.9%.

`COc1ccc(C2C(C(C)=O)=C(O)C(=O)N2CC2CCCO2)cc1OC` (stereo unspecified): the displacement was found to be 1.3%.

Turning to `O=C(Nc1ccc2c(c1)OCO2)c1ccc(I)cc1`, the displacement worked out at 12.7%.

On to `CCCCC1(C(=O)O)CC(C)=C(C)CC1C(=O)O` (stereo unspecified), for which the displacement is 14%.

For `O=C(NC(=S)NCc1cccnc1)c1cccs1`, the displacement is 7.3%.

For `COc1ccc(NC(=O)CN(c2ccc(OC)cc2)S(C)(=O)=O)cc1`, the displacement was 6.2%.

In the case of `COc1cccc(OCCn2cc(/C=N/n3cnnc3)c3ccccc32)c1`, the displacement is -1.9%.

`CCN1C(=O)/C(=C/c2cc([N+](=O)[O-])ccc2OC)SC1=S`: the displacement was found to be 48.1%.

In the case of `COc1cccc(C(=O)/C=C/c2ccccc2Cl)c1`, the displacement is -5.8%.

As to `Cc1ccccc1-c1cc(C(=O)NCCc2ccccc2)c2ccccc2n1`, the displacement is -6.9%.

Consider `O=C(Nc1ccc(Cl)cc1)C1C2/C=C\CCCCC21` (stereo unspecified), for which the displacement was -6.4%.

As for `O=C(NCC1(c2ccccc2)CCOCC1)c1cccc(Cl)c1`, the displacement was -3.7%.

As to `COc1ccc(-n2c(C)c(C(C)=O)c3cc(OC(=O)c4ccccc4OC(C)=O)ccc32)cc1`, the displacement was -5.3%.

For `FC(F)(F)C(=C(NC(=S)n1cnc2ccccc21)C(F)(F)C(F)(F)F)C(F)(F)F`, the displacement was determined as 8.7%.

As for `CC(C)NC(=O)C(=O)NN=C1CCCC1`, the displacement is -15.3%.

Take `COc1ccc(C2Nc3ccccc3NC3=C2C(=O)CC(c2ccc(OC)c(OC)c2)C3)cc1` (stereo unspecified): the displacement amounted to 13.9%.

For `CNC(=O)c1cc(-c2ccc(OC)cc2)nc2ccccc12`, the displacement is -3.2%.

For `Cc1cc(C)n(C(=O)c2ccc(F)cc2)n1`, the displacement was -11%.

Regarding `CCSc1nnc(NC(=O)c2cnccn2)s1`, the displacement worked out at 4.6%.

Take `O=C(Nc1ccc2c(c1)oc1ccccc12)c1ccc(I)cc1`: the displacement was found to be 37.8%.

Consider `Nc1nnc(SCC(=O)N2CCc3ccccc3C2)s1`, for which the displacement is 8.3%.

As to `COc1ccc(/C=C/C(=O)Nc2nc(C)c(C)s2)cc1OC`, the displacement is 47.5%.

On to `O=C1C(=Cc2c(NCCO)nc3ccccn3c2=O)SC(=S)N1Cc1ccco1`, for which the displacement is 16.4%.

Regarding `COc1cc(OC)c(OC)cc1/C=N/NC(=O)CCc1c(C)n[nH]c1C`, the displacement is -4%.

Take `C/C(=N\Nc1nc(C)cc(=O)[nH]1)c1ccccc1`: the displacement was -15.2%.

Regarding `CCN(CC)S(=O)(=O)c1ccc(OC)c(OC)c1`, the displacement is -4.4%.

In the case of `Cc1ccccc1NC(=O)CSc1ncccn1`, the displacement was -5.6%.

Take `CCOc1cc(C2NC(=S)NC(C)=C2C(=O)Nc2ccc(C)cc2)ccc1O` (stereo unspecified): the displacement came out at 2.6%.

As for `CC(Cc1ccccc1)N=C1NS(=O)(=O)c2ccccc21` (stereo unspecified), the displacement was -2.2%.

In the case of `CCN(CC)c1ccc(/C=C2/C=C(c3ccc(C)cc3)OC2=O)cc1`, the displacement amounted to 6.1%.

Regarding `O=C(Nc1ccc(Cl)c(Cl)c1)C1C2/C=C\CCCCC21` (stereo unspecified), the displacement is -12.8%.

As for `O=C(Nc1cccnc1)c1cc2ccccc2o1`, the displacement worked out at 8.9%.

Turning to `CC1=C(C(=O)OC2CCCCCC2)C(c2ccc3c(c2)OCO3)C2=C(CCCC2=O)N1` (stereo unspecified), the displacement was -4.9%.

For `O=c1[nH]c(/C=C/c2ccc(N3CCOCC3)c([N+](=O)[O-])c2)c([N+](=O)[O-])c(=O)[nH]1`, the displacement is 2.1%.

For the compound `O=C(Cc1ccccc1)Nc1ccc(-c2nc3cc(Cl)ccc3o2)cc1`, the displacement is -2.5%.

In the case of `Cc1cc(N2C(=O)NC(=O)/C(=C\c3ccsc3)C2=O)ccc1Br`, the displacement was -9.6%.

As for `COc1ccccc1CNC(=O)Cc1ccccc1[N+](=O)[O-]`, the displacement was -1.7%.

As for `O=C(NCCc1ccccc1)C(=O)Nc1cccc(Cl)c1Cl`, the displacement stood at 8.1%.

In the case of `COC(=O)c1cccc(NC(=O)C23CC4CC(C2)CC(C(=O)Nc2cccc(C(=O)OC)c2)(C4)C3)c1`, the displacement was 13.4%.

For `Cc1c(Cl)cccc1NC(=O)/C(C#N)=C/c1ccc(N2CCOCC2)o1`, the displacement is -99.2%.

On to `CCOc1ccc(-c2csc(/C(C#N)=C/c3ccco3)n2)cc1`, for which the displacement is -6%.

`CC(C)(C)N1C(=O)c2ccc(C(=O)Nc3ccc(C(=O)O)cc3)cc2C1=O`: the displacement amounted to 11.6%.

On to `O=C(COc1ccccc1[N+](=O)[O-])Nc1ccc2oc(-c3ccccc3Br)nc2c1`, for which the displacement was found to be 5.2%.

As for `Cc1c(Cc2ccccc2)c(-n2ccnc2)n2c(nc3ccccc32)c1C#N`, the displacement is 5.2%.

In the case of `COc1cccc(/C=C2\SC(=O)N(c3ccc(Cl)cc3)C2=O)c1O`, the displacement was -2.1%.

With `COc1ccc(-c2nc3cc(NC(C)=O)ccc3o2)cc1`, the displacement was determined as 0.3%.

As to `COc1ccc(-c2nn(-c3ccccc3)cc2/C=C/C(=O)O)cc1`, the displacement came out at 14.2%.

Consider `O=C(c1ccccc1)N1CC(=O)N2CCc3ccccc3C2C1` (stereo unspecified), for which the displacement worked out at 1%.

`O=C(c1ccccc1)N1CCN(c2nc(-c3ccccc3)c3cc(Cl)ccc3n2)CC1`: the displacement came out at 10.6%.

Consider `COc1ccc2c(c1)-c1c(sn(-c3cc(C)cc(C)c3)c1=S)C(C)(C)N2`, for which the displacement is -4.3%.

With `O=Cc1ccc(/C=C2/SC(=S)N(c3cccc(Cl)c3)C2=O)cc1`, the displacement is 1.3%.

For `CCOc1ccc(NC(=O)CN(c2ccc(C(C)C)cc2)S(=O)(=O)c2ccccc2)cc1`, the displacement was 0.3%.

As to `O=C(Nc1ccc(NC(=O)c2ccc(-c3ccc(Cl)cc3Cl)o2)cc1)c1ccccc1`, the displacement worked out at 83.5%.

Turning to `O=C1CC(c2ccc(Cl)cc2)c2ccc3ccccc3c2N1` (stereo unspecified), the displacement is 7.9%.

Turning to `COc1ccc(N2CC(C(=O)N/N=C/c3cccs3)CC2=O)cc1` (stereo unspecified), the displacement stood at 65%.

As to `COc1ccc(/C=C2/NC(=S)NC2=O)cc1OCc1ccc(Cl)cc1Cl`, the displacement is 4.4%.

Regarding `O=C(c1sc2ccccc2c1Cl)N1CCc2ccccc2C1`, the displacement is 14.2%.

Consider `CC(C)CN1C(=O)/C(=C/c2ccc(F)cc2)SC1=S`, for which the displacement was determined as 19.6%.

`CC1CCc2c(sc(N)c2C(=O)Nc2ccccc2Cl)C1` (stereo unspecified): the displacement was -31.1%.

Turning to `O=C1CC(=O)N(c2ccc3ccccc3c2)C(=S)N1`, the displacement is -9.9%.

Regarding `CCOC(=O)c1cnc2c(ccc3ccccc32)c1Cl`, the displacement came to 11%.

In the case of `O=C1/C(=C/c2cccc3ccccc23)SC(=S)N1Cc1ccco1`, the displacement amounted to 79.2%.

For the compound `O=C(NCC(c1ccccc1)c1ccccc1)Nc1ccc(Cl)cc1`, the displacement was found to be 2.6%.
